Data on 32 variants can be found in the GPR68 mutational scans of Howard et al. (2025).

B1: GPR68, Q15743 (parent)
chain: MGNITADNSSMSCTIDHTIHQTLAPVVYVTVLVVGFPANCLSLYFGYLQIKARNELGVYLCNLTVADLFYICSLPFWLQYVLQHDNWSHGDLSCQVCGILLYENIYISVGFLCCISVDRYLAVAHPFRFHQFRTLKAAVGVSVVIWAKELLTSIYFLMHEEVIEDENQHRVCFEHYPIQAWQRAINYYRFLVGFLFPICLLLASYQGILRAVRRSHGTQKSRKDQIQRLVLSTVVIFLACFLPYHVLLLVRSVWEASCDFAKGVFNAYHFSLLLTSFNCVADPVLYCFVSETTHRDLARLRGACLAFLTCSRTGRAREAYPLGAPEASGKSGAQGEEPELLTKLHPAFQTPNSPGSGGFPTGRLA

The least precise scores are not listed. The source holds two more conditions with little spread; they are left out. Names with del lack the residues named; names with ins carry added residues between the positions named. For some of these results: The data file names ogerin without a concentration.

The variants in series [1] derive from B1. Description: cAMP reporter score (Enrich2 score, wild type = 0); higher = more signal; HEK293T, FACS bins.
Variants of B1 are the subject of series [2]. Description: surface expression score (Enrich2 score, wild type = 0); higher = more signal; HEK293T, FACS bins.

With Q182M, the cAMP reporter score in series [1] (pH 5.5) is 0.263; in series [1] (pH 6, modulator: ogerin), -0.141; in series [1] (pH 6.5, modulator: ogerin), -0.536. Further, the surface expression score in series [2] was -0.104.
Q182W: the cAMP reporter score in series [1] (pH 5.5) is -1.09; in series [1] (pH 6), 0.432; in series [1] (pH 6.5, modulator: ogerin), -0.3. Moreover, the surface expression score in series [2] is -0.053.
Turning to Q182Y, the cAMP reporter score was -0.233 in series [1] (pH 5.5); -0.142 in series [1] (pH 6); -0.796 in series [1] (pH 6, modulator: ogerin); -0.21 in series [1] (pH 6.5, modulator: ogerin). Also, the surface expression score in series [2] was -0.273.
Turning to Q182F, the cAMP reporter score in series [1] (pH 5.5) was -0.501; in series [1] (pH 6.5, modulator: ogerin), -0.947. Also, the surface expression score in series [2] is -0.651.
With Q179E, the cAMP reporter score was 0.544 in series [1] (pH 5.5); -0.176 in series [1] (pH 6); 0.586 in series [1] (pH 6, modulator: ogerin); -0.663 in series [1] (pH 6.5, modulator: ogerin). Also, the surface expression score in series [2] is 0.688.
Consider Q179I, for which the cAMP reporter score is 0.081 in series [1] (pH 5.5); -0.663 in series [1] (pH 6, modulator: ogerin); -0.39 in series [1] (pH 6.5, modulator: ogerin). For the same variant, the surface expression score in series [2] is 2.01.
For Q179L, the cAMP reporter score in series [1] (pH 5.5) is -0.053; in series [1] (pH 6) it was -0.117; in series [1] (pH 6, modulator: ogerin), -0.114; in series [1] (pH 6.5, modulator: ogerin) it was -0.259. Moreover, the surface expression score in series [2] was -0.207.
The matching figures for Q179C: 0.397, -0.545, -0.346, -1.25 and -0.327.
Regarding Q179S, the cAMP reporter score in series [1] (pH 5.5) was -0.395; in series [1] (pH 6), -0.98; in series [1] (pH 6.5, modulator: ogerin), -1.33. Further, in series [2], the surface expression score stood at 1.4.
Turning to Q179P, the cAMP reporter score came to 0.55 in series [1] (pH 5.5); 1.04 in series [1] (pH 6); 0.418 in series [1] (pH 6, modulator: ogerin); 0.181 in series [1] (pH 6.5, modulator: ogerin). Besides, the surface expression score in series [2] is 2.36.
Regarding Q179F, the cAMP reporter score in series [1] (pH 5.5) was 0.936; in series [1] (pH 6, modulator: ogerin) it was -0.049; in series [1] (pH 6.5, modulator: ogerin), -0.01. Moreover, the surface expression score in series [2] amounted to 1.31.
Q179A: the cAMP reporter score in series [1] (pH 5.5) was -0.932; in series [1] (pH 6), 0.216; in series [1] (pH 6, modulator: ogerin) it was -0.64; in series [1] (pH 6.5, modulator: ogerin), 0.501. Also, in series [2], the surface expression score was -0.084.
Q179H: the cAMP reporter score was 0.652 in series [1] (pH 5.5); -0.215 in series [1] (pH 6, modulator: ogerin); -0.723 in series [1] (pH 6.5, modulator: ogerin). The surface expression score in series [2] turned out to be 1.23.
Turning to Q179R, the cAMP reporter score is -0.111 in series [1] (pH 5.5); -1.23 in series [1] (pH 6); -0.467 in series [1] (pH 6, modulator: ogerin). Moreover, in series [2], the surface expression score stood at 0.746.
In the case of Q179Y, the cAMP reporter score in series [1] (pH 5.5) is -0.4; in series [1] (pH 6.5, modulator: ogerin), -1.32.
Consider Q179K, for which the cAMP reporter score in series [1] (pH 5.5) is -0.254; in series [1] (pH 6), 0.366; in series [1] (pH 6, modulator: ogerin), -0.403; in series [1] (pH 6.5, modulator: ogerin) it was -0.317. Further, the surface expression score in series [2] is -0.393.
Taken in the same sequence, the figures for Q179V were 0.666, -0.661, 0.089, -1.06 and 0.13.
The matching figures for Q179N: -0.215, 0.019, -1.65, -0.509 and 2.03.
The matching figures for Q179M: 0.448, 0.431, 0.793, -0.042 and 1.53.
For Q179D, the cAMP reporter score was -0.968 in series [1] (pH 5.5); -0.617 in series [1] (pH 6); -0.578 in series [1] (pH 6, modulator: ogerin); -0.908 in series [1] (pH 6.5, modulator: ogerin). For the same variant, the surface expression score in series [2] worked out at 0.579.
The matching figures for Q179T: -0.884, -1.16, -1.42, -1.46 and 0.608.
With Q179W, the cAMP reporter score in series [1] (pH 5.5) is -0.104; in series [1] (pH 6), 0.27; in series [1] (pH 6.5, modulator: ogerin) it was 0.358. Besides, the surface expression score in series [2] was -0.487.
On to Q179G, for which the cAMP reporter score was -2 in series [1] (pH 5.5); -0.919 in series [1] (pH 6); -0.362 in series [1] (pH 6, modulator: ogerin); -0.974 in series [1] (pH 6.5, modulator: ogerin). Further, in series [2], the surface expression score is 1.85.
The matching figures for E174del: -1.57, -0.586, -1.49, -0.722 and -0.882.
With Q182_R183insG, the cAMP reporter score in series [1] (pH 5.5) is 0.07; in series [1] (pH 6), -0.284; in series [1] (pH 6, modulator: ogerin) it was -0.527; in series [1] (pH 6.5, modulator: ogerin), -0.137. Moreover, the surface expression score in series [2] is -0.438.
Taken in the same sequence, the figures for A180_W181insGS were -0.072, -0.3, -1.2, 0.257 and -0.065.
Taken in the same sequence, the figures for A184T were 0.753, -0.415, 0.847, 0.357 and 1.06.
Taken in the same sequence, the figures for A184L were -0.053, -0.336, 0.076, -0.639 and -1.03.
For A184M, the cAMP reporter score is 0.115 in series [1] (pH 5.5); -1.15 in series [1] (pH 6); -0.153 in series [1] (pH 6, modulator: ogerin); -0.882 in series [1] (pH 6.5, modulator: ogerin). Besides, in series [2], the surface expression score is -0.998.
Taken in the same sequence, the figures for A184F were -0.146, -1.06, 0.025, -0.961 and -0.584.
With A184S, the cAMP reporter score in series [1] (pH 5.5) was -0.119; in series [1] (pH 6) it was -0.456; in series [1] (pH 6, modulator: ogerin), -0.288; in series [1] (pH 6.5, modulator: ogerin), 0.195. The surface expression score in series [2] was -0.362.
Turning to A184C, the cAMP reporter score in series [1] (pH 5.5) was determined as 1.98; in series [1] (pH 6, modulator: ogerin), 1.75; in series [1] (pH 6.5, modulator: ogerin) it was 0.125.
